The data set can be described thus: xn = mol fraction of the nth substance listed. Particulars: 100 kPa.

Some of these densities may be calculated back from excess volumes.

Regarding `CCCCCCCCn1cc[n+](C)c1.F[B-](F)(F)F` + O, the mass density (as a rule, the mass of a sample divided by its volume) runs as follows: (313 K, x1 = 0.5482) 1082.2 kg/m3; (318 K, x1 = 0.5482) 1077.9 kg/m3; (323 K, x1 = 0.5482) 1073.7 kg/m3.

`CCCC[n+]1ccn(C)c1.O=[N+]([O-])[O-]` + O: the mass density (303 K, x1 = 0.4462) was found to be 1134.7 kg/m3; the mass density (303 K, x1 = 0.6298) stood at 1147.9 kg/m3; the mass density (313 K, x1 = 0.0098) came to 1005.9 kg/m3; the mass density (313 K, x1 = 0.0219) came to 1019.9 kg/m3; the mass density (313 K, x1 = 0.037) is recorded as 1035.2 kg/m3; the mass density (313 K, x1 = 0.1184) is listed as 1083.2 kg/m3. Further, the mass density reads like this: (313 K, x1 = 0.1728) 1100.9 kg/m3; (313 K, x1 = 0.4462) 1128 kg/m3; (313 K, x1 = 0.6298) 1141.4 kg/m3; (318 K, x1 = 0.4462) 1124.7 kg/m3; (318 K, x1 = 0.6298) 1138.2 kg/m3; (323 K, x1 = 0.4462) 1121.4 kg/m3. Besides, the mass density (323 K, x1 = 0.6298) was 1135 kg/m3.

These data come from a compilation of properties of binary mixtures (doi:10.1002/aic.14507).
